From PubChem BioAssay (NCI)
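Five compound concentrations were applied to cells in 96-well plates for 48 hours; endpoints were derived by simple linear interpolation of the resulting dose-response curve. Abbreviation: GI50, concentration required for 50% inhibition of growth. The concentration for full growth arrest is given as TGI.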

system: NCI-H322M lung; assay: NCI-60 cell line screen, 48 h

**Q.** For `CCOC(=O)c1c(NCC(=O)Nc2cccc([N+](=O)[O-])c2)sc(C(C)=O)c1C`, which GI50 is on record?
**A.** 2160 nM

**Q.** What about the TGI of the same molecule?
**A.** 5.85 µM

**Q.** What does the source list for `NC(=O)c1cccc(-n2ccc3cc(NC(=O)Nc4ccc(N5CCOCC5)c(C(F)(F)F)c4)ccc32)n1`?
**A.** GI50: 1800 nM; TGI: 5.25 µM

**Q.** Which GI50 does the source give for `O=C(N/N=C/c1ccc(Cl)s1)c1[nH]c2ccc(Br)cc2c1-c1ccccc1` here?
**A.** 1410 nM

**Q.** What about the TGI of the same molecule?
**A.** > 100 µM

**Q.** `COc1cc2c3c(n(CCCN4CCCCC4)c(=O)c2cc1OC)-c1cc2c(cc1C3=O)OCO2` was tested. Which GI50 did it give?
**A.** 1510 nM

**Q.** What about the TGI of the same molecule?
**A.** 2.88 µM

**Q.** For `Cc1ncn(-c2ccc(/C=N/Nc3ccnc4cc(Cl)ccc34)cc2)c1C`, which GI50 is on record?
**A.** 1920 nM

**Q.** And the TGI?
**A.** 3.98 µM
